The other results are listed elsewhere or left out. The main result of the screen is listed elsewhere. These columns were measured beside it and carry no call. The note in brackets gives the kind of curve behind each potency; many fits are weak.
test: qHTS drug screen for cell cycle checkpoint inhibitors in PARPi-resistant BRCA-mutant ovarian cancer cell lines. (AID 1963452); conditions: PEO1/OlaR viability, CellTiter-Glo luminescence, 96 h; measured here: PEO1 parental viability
In short: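 PEO1, PEO4 and PEO1/OlaR ovarian cancer cells, 600 per well, exposed 96 h at 37C to a dilution series. Viability read by CellTiter-Glo luminescence, normalized to DMSO and empty wells; activity summarized as Z-AUC.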
Tags describe the fitted curve by direction and shape.

Compound | AC50
Cc1ccccc1C(=O)Nc1ccc(C(=O)N2CCCC(O)c3cc(Cl)ccc32)c(C)c1 (stereo not given) | 0.0138 µM [rising, full curve, poor fit]
COC1CCN(C(=O)c2cc(Cc3n[nH]c(=O)c4ccccc34)ccc2F)CC1 | 11 µM [falling, partial curve]
Cc1cc(F)c(C(=O)Nc2cccc(-c3nncn3C(C)C)n2)cc1-n1cnc(C2CC2)c1 | 8.71 µM [falling, partial curve, poor fit]
COc1cc2c(cc1OCCCN1CCCC1)N=C(N)C21CCC1 | 27.5 µM [rising, partial curve, poor fit]
C/C(O)=C(\C#N)C(=O)Nc1ccc(C(F)(F)F)cc1 | 6.92 µM [falling, partial curve, poor fit]
C=C1[C@H](CO)[C@@H](O)C[C@@H]1n1cnc2c(=O)[nH]c(N)nc21 | 0.871 µM [rising, full curve]
Cc1cc(O)cc2c1[C@]1(C)CC[C@H]3C(C)(C)CCC[C@]3(C)[C@H]1C2 | 0.0004 µM [rising, full curve]
NS(=O)(=O)c1cc(Cl)c(Cl)c(S(N)(=O)=O)c1 | 3.89 µM [rising, full curve, poor fit]
O=C(O)c1nc(=O)[nH]c(=O)[nH]1 | 0.0239 µM [falling, full curve, poor fit]
C=C1c2cccc(O)c2C(O)=C2C(=O)[C@@]3(O)C(O)=C(C(N)=O)C(=O)[C@@H](N(C)C)[C@@H]3[C@@H](O)[C@H]12 | 24.5 µM [falling, single point]

Source: PubChem BioAssay (NCATS)
